In paper PMC12820563:
The other results are listed elsewhere or left out. The list includes weakly bound sequences.

biological target: T1, MBP-FoxP3dN (UniProt Q99JB6); experiment: PD-seq (MBP pull-down with sequencing); conditions: 20 mM Tris-HCl pH 7.5, 100 mM NaCl, 1.5 mM MgCl2, 0.4 uM protein, 0.1 uM dsDNA library, 30 min, room temperature, amylose pull-down; high values mean tight binding; double strand, one strand shown
T1 sequence: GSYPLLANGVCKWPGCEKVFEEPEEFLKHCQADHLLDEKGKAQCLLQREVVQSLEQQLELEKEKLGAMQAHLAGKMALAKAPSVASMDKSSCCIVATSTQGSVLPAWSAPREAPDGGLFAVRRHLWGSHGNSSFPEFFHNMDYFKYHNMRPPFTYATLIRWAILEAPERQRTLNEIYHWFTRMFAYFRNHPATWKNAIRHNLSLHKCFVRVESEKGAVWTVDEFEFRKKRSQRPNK

Sequence | binding signal (RPM ratio (pull-down/input))
GATGATTGTTCTCCCAGCTGATGAATTGGGCACGTCGAGTAAACAAATTTTCCTAATCTTTCTGTTCAAGCGCCATCTAC | 0.887
GATGATTGTTCTCCCAGCTGATGAATTGGAATTATCGAGTAAACAAATTTTCCTAATCTTTCTGTTCAAGCGCCATCTAC | 0.625
GATGATTGTTCTCCCAGCTGATGAATTAGCTTACTCGAGTAAACAAATTTTCCTAATCTTTCTGTTCAAGCGCCATCTAC | 3.94
GATGATTGTTCTCCCAGCTGATGAATTCGATTGTTCGAGTAAACAAATTTTCCTAATCTTTCTGTTCAAGCGCCATCTAC | 4.97
GATGATTGTTCTCCCAGCTGATGAATTCACATATTCGAGTAAACAAATTTTCCTAATCTTTCTGTTCAAGCGCCATCTAC | 0.448
GATGATTGTTCTCCCAGCTGATGAATTTCCAACGTCGAGTAAACAAATTTTCCTAATCTTTCTGTTCAAGCGCCATCTAC | 0.279
GATGATTGTTCTCCCAGCTGATGAATTTACTTTGTCGAGTAAACAAATTTTCCTAATCTTTCTGTTCAAGCGCCATCTAC | 1.71
GATGATTGTTCTCCCAGCTGATGAATTAACCGAGTCGAGTAAACAAATTTTCCTAATCTTTCTGTTCAAGCGCCATCTAC | 0.206
GATGATTGTTCTCCCAGCTGATGAATTGGAAACATCGAGTAAACAAATTTTCCTAATCTTTCTGTTCAAGCGCCATCTAC | 0.723
GATGATTGTTCTCCCAGCTGATGAATTGCCGATTTCGAGTAAACAAATTTTCCTAATCTTTCTGTTCAAGCGCCATCTAC | 0.713
GATGATTGTTCTCCCAGCTGATGAATTGATGTCTTCGAGTAAACAAATTTTCCTAATCTTTCTGTTCAAGCGCCATCTAC | 1.07
GATGATTGTTCTCCCAGCTGATGAATTACAGATTTCGAGTAAACAAATTTTCCTAATCTTTCTGTTCAAGCGCCATCTAC | 0.415
GATGATTGTTCTCCCAGCTGATGAATTCGCAACCTCGAGTAAACAAATTTTCCTAATCTTTCTGTTCAAGCGCCATCTAC | 2.25
GATGATTGTTCTCCCAGCTGATGAATTAGTATTCTCGAGTAAACAAATTTTCCTAATCTTTCTGTTCAAGCGCCATCTAC | 2.97
GATGATTGTTCTCCCAGCTGATGAATTCGCAGGTTCGAGTAAACAAATTTTCCTAATCTTTCTGTTCAAGCGCCATCTAC | 0.338
GATGATTGTTCTCCCAGCTGATGAATTCTATGTGTCGAGTAAACAAATTTTCCTAATCTTTCTGTTCAAGCGCCATCTAC | 1.96

Sequence | binding signal (RPM ratio (pull-down/input))
GATGATTGTTCTCCCAGCTGATGAATTTGAGTCCTCGAGTAAACAAATTTTCCTAATCTTTCTGTTCAAGCGCCATCTAC | 0.775
GATGATTGTTCTCCCAGCTGATGAATTTGGGGTCTCGAGTAAACAAATTTTCCTAATCTTTCTGTTCAAGCGCCATCTAC | 1.1
GATGATTGTTCTCCCAGCTGATGAATTCGAAATTTCGAGTAAACAAATTTTCCTAATCTTTCTGTTCAAGCGCCATCTAC | 0.328
GATGATTGTTCTCCCAGCTGATGAATTTCTTACCTCGAGTAAACAAATTTTCCTAATCTTTCTGTTCAAGCGCCATCTAC | 0.282
GATGATTGTTCTCCCAGCTGATGAATTTGGTGCGTCGAGTAAACAAATTTTCCTAATCTTTCTGTTCAAGCGCCATCTAC | 1.7
GATGATTGTTCTCCCAGCTGATGAATTATCGTTATCGAGTAAACAAATTTTCCTAATCTTTCTGTTCAAGCGCCATCTAC | 0.751
GATGATTGTTCTCCCAGCTGATGAATTACTTGGATCGAGTAAACAAATTTTCCTAATCTTTCTGTTCAAGCGCCATCTAC | 0.225
GATGATTGTTCTCCCAGCTGATGAATTTCGCGACTCGAGTAAACAAATTTTCCTAATCTTTCTGTTCAAGCGCCATCTAC | 2.19
GATGATTGTTCTCCCAGCTGATGAATTAGGGGGTTCGAGTAAACAAATTTTCCTAATCTTTCTGTTCAAGCGCCATCTAC | 0.583
GATGATTGTTCTCCCAGCTGATGAATTTCGATCGTCGAGTAAACAAATTTTCCTAATCTTTCTGTTCAAGCGCCATCTAC | 0.433
GATGATTGTTCTCCCAGCTGATGAATTACCTCTTTCGAGTAAACAAATTTTCCTAATCTTTCTGTTCAAGCGCCATCTAC | 0.358
GATGATTGTTCTCCCAGCTGATGAATTGGCACATTCGAGTAAACAAATTTTCCTAATCTTTCTGTTCAAGCGCCATCTAC | 0.576
GATGATTGTTCTCCCAGCTGATGAATTCGACGTTTCGAGTAAACAAATTTTCCTAATCTTTCTGTTCAAGCGCCATCTAC | 0.772
GATGATTGTTCTCCCAGCTGATGAATTCTCGACATCGAGTAAACAAATTTTCCTAATCTTTCTGTTCAAGCGCCATCTAC | 0.377
GATGATTGTTCTCCCAGCTGATGAATTATGCGTGTCGAGTAAACAAATTTTCCTAATCTTTCTGTTCAAGCGCCATCTAC | 5.88
GATGATTGTTCTCCCAGCTGATGAATTCGAACCCTCGAGTAAACAAATTTTCCTAATCTTTCTGTTCAAGCGCCATCTAC | 0.236
